In PubChem BioAssay AID1768 (National Center for Advancing Translational Sciences (NCATS), 2009):
Where “and” joins values, the source holds several entries; their conditions need not be identical. Equal entries are not always repeated. In all, about 270,000 compounds went through this assay and about 620 (0.23%) were called active. This list was built around the results that the source calls inconclusive (neither active nor inactive); the mix of calls is not that of the screen. Calls follow the shape of the dose curve; as a rule, active = well fitted inhibition curve with a large enough effect in the polarisation, with a control signal flat (not every such curve was filed as active); inconclusive = small, poorly fitted or top-dose-only effect, or effect the other way, or a change in a side signal; inactive = no such curve, though single readings can be large or run the other way; the % refers to the polarisation. A potency beside an inconclusive call is a rough fit, not a confirmed value. A note “side channel” means that the fit belongs to a control or component signal, not to the main read-out.

biological target: Menin (Homo sapiens) (UniProt O00255); test: qHTS Assay for Inhibitors Targeting the Menin-MLL Interaction in MLL Related Leukemias: Competition With Texas Red Labeled MLL-derived Mutant Peptide; conditions: fluorescence polarization; series mostly up to 61.6 µM
UniProt O00255, sequence (O00255 whole entry, looked up): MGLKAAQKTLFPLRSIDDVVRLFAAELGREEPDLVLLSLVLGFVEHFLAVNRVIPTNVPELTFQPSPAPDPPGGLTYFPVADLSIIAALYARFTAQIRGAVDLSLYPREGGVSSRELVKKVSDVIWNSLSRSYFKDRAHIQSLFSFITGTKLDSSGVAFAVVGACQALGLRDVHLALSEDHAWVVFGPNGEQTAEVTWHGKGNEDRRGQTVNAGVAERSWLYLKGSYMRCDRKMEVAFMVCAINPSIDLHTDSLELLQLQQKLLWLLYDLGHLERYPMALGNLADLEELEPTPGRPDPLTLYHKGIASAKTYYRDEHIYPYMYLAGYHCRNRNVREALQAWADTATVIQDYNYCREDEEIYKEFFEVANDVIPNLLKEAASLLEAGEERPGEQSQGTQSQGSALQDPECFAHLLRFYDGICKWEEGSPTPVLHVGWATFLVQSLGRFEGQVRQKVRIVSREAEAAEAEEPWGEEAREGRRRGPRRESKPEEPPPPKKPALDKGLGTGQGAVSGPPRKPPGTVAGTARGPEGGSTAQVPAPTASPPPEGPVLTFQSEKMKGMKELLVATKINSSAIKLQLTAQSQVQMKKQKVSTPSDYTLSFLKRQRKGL
Potency is read from the fitted curve at half-maximal effect; tags tell the direction and shape of the fitted curve or compound fluorescence and quenching.

| Compound | Potency |
| --- | --- |
| CN(c1ccc(OCC(=O)OCC(=O)Nc2ccccc2)cc1)S(=O)(=O)c1cccs1 | inactive |
| CCCC(=O)Nc1nnc(CC(=O)N2CCCC2)s1 | inconclusive: 39.8 µM [inhibitor, single point] |
| CCOC(=O)N1CCC(NC(=O)c2cccn3c(=O)c4cc(Br)ccc4nc23)CC1 | inconclusive: 3.16 µM [fluorescent, side channel, single point] |
| CCN1/C(=C\C(=S)Nc2ccccc2)Sc2ccccc21 | inconclusive: 17.8 µM [quencher, side channel, partial curve] |
| CC(C)(C)NC(=O)Cc1ccc(S(=O)(=O)N2CCCC2)s1 | inconclusive: 39.8 µM [inhibitor, single point] |
| COc1ccc(-c2cn[nH]c2-c2ccc(OCc3ccc([N+](=O)[O-])cc3)cc2O)cc1 | inconclusive: 6.31 µM [quencher, side channel, partial curve] |
| c1cncc(Nc2nc(-c3cccs3)cs2)c1 | inconclusive: 15.8 µM [quencher, side channel, partial curve] |
| COc1ccc(N2C(=O)C(Cl)=C(N3CCCC(C)C3)C2=O)cc1 (stereo not drawn) | inconclusive: 22.4 µM [fluorescent, side channel, partial curve] |
| Cc1ccc(S(=O)(=O)N2CCOCC2)cc1NC(=O)COC(=O)CSc1ccc(Br)cc1C | inconclusive: 39.8 µM [quencher, side channel, single point] |
| CC(C)N(Cc1ccccc1)C(=O)CCc1ccccc1 | inconclusive: 10 µM [fluorescent, side channel, partial curve] |
| C1=CC2c3ccccc3NC(c3ccncc3)C2C1 (stereo not drawn) | inconclusive: 25.1 µM [quencher, side channel, partial curve] |
| COc1cc(/C=C2/C(=O)N(c3ccc(C)c(C)c3)N=C2C)cc([N+](=O)[O-])c1O | inconclusive: 14.1 µM [quencher, side channel, partial curve] |
| CCOc1ccccc1-n1c(=S)sc2c(=O)n(-c3ccccc3)c(=S)[nH]c21 | inconclusive: 39.8 µM [inhibitor, single point] |
| CC(C)=CCC1=C(O)c2ccccc2C(=O)C1=O | inconclusive: 20 µM [quencher, side channel, partial curve] and inconclusive: 25.1 µM [quencher, side channel, single point] |
| COCC(=O)N(Cc1cc2cc(OC)ccc2[nH]c1=O)c1ccccc1 | inconclusive: 3.98 µM [inhibitor, partial curve] |
| O=C(NC1CCCCC1)c1nn2c(C(F)(F)F)cc(-c3ccco3)nc2c1Br | inconclusive: 25.1 µM [quencher, side channel, partial curve] |
| Oc1ccc(Br)cc1/C=N/n1cnc2ccccc21 | inconclusive: 28.2 µM [quencher, side channel, partial curve] |
| CCOc1ccc(C(=O)NC2CCN(C(=S)Nc3ccccc3C)CC2)cc1 | inconclusive: 14.1 µM [fluorescent, side channel, partial curve, poor fit] |
| COc1ccc(NS(=O)(=O)c2ccc3c(c2)Cc2ccccc2-3)cn1 | inconclusive: 12.6 µM [quencher, side channel, partial curve] |
| OC(CN1CCCCC1)CN1CCCCC1 | inconclusive: 39.8 µM [fluorescent, side channel, single point] |

| Compound | Potency |
| --- | --- |
| Cc1ccc(C)n1-c1cccc(N)c1 | inconclusive: 28.2 µM [quencher, side channel, single point] |
| COCCNC(=O)c1c[nH]n2c(=O)cc(C3CCN(C(=O)OC(C)(C)C)CC3)nc12 | inconclusive: 31.6 µM [quencher, side channel, single point] |
| CCOC(=O)N1CCN(C(=O)/C=C/c2c(C)nn(-c3ccc(F)cc3)c2Cl)CC1 | inconclusive: 11.2 µM [fluorescent, side channel, partial curve] |
| O=C(NNC(=O)c1sccc1-n1cccc1)c1ccccc1 | inactive |
| O=C(/C=C/c1c(F)cccc1Cl)NCc1ccc2c(c1)OCO2 | inconclusive: 35.5 µM [inhibitor, single point] |
| CC(/C=C/c1ccco1)=N\NC(=O)c1cc(Cl)ccc1O | inconclusive: 25.1 µM [quencher, single point] |
| Cc1ccc(N/C=C2\C(=O)C3(C)CCC2C3(C)C)cc1C (stereo not drawn) | inconclusive: 28.2 µM [fluorescent, partial curve] |
| Cc1cccc(-c2nnc(NC(=O)c3ccc(Cl)cc3)o2)c1 | inconclusive: 20 µM [quencher, side channel, single point] |
| COc1ccccc1C1CCN(Cc2ccccc2)CC1 | inconclusive: 10 µM [inhibitor, partial curve] |
| Cc1n[nH]c(=S)n1/N=C/c1ccccc1OCc1ccc(Cl)cc1 | inconclusive: 39.8 µM [inhibitor, single point] |
| CCOc1ccccc1-c1nn2c(Cc3ccccc3)nnc2s1 | inconclusive: 15.8 µM [fluorescent, side channel, partial curve] |
| Cc1ccc(Cn2c(O)c(N=NC(=S)Nc3ccccc3F)c3ccccc32)cc1 | inconclusive: 11.2 µM [quencher, side channel, partial curve] |
| COc1ccc(OC)c(-c2cnc(OC(C)(C)C)nc2OC(C)(C)C)c1 | inconclusive: 8.91 µM [inhibitor, full curve, poor fit] |
| COc1ccccc1CN1CCCCCC1 | inconclusive: 39.8 µM [inhibitor, single point] |
| C#Cc1ccc([C@H]2C=C(C(=O)N3CCN(Cc4ccc5c(c4)OCO5)CC3)O[C@@H](OCc3ccc(CO)cc3)C2)cc1 | inconclusive: 1.58 µM [fluorescent, side channel, full curve, poor fit] |
| COc1cc(NC(=O)Cn2c(=O)n(-c3cccc(C)c3)c(=O)c3c(C)c(C)sc32)cc(OC)c1 | inconclusive: 25.1 µM [inhibitor, single point] |
| Cc1cc(C)c(NC(=O)C(C)Sc2nc3ccc(N4C(=O)c5ccccc5C4=O)cc3s2)c(C)c1 (stereo not drawn) | inconclusive: 3.98 µM [fluorescent, side channel, full curve] |
| CC1CCCCN1C(=O)c1ccc(NC(=O)c2ccccc2Cl)cc1 (stereo not drawn) | inactive |
| CC(Oc1ccc(Cl)cc1Cl)C(=O)NC1=NN(c2ccccc2)C(=O)C1 (stereo not drawn) | inconclusive: 11.2 µM [quencher, side channel, partial curve] |
| Cc1cc(C)cc(OCC(O)CN2CCN(C(=O)c3ccco3)CC2)c1 (stereo not drawn) | inconclusive: 31.6 µM [fluorescent, side channel, single point] |

| Compound | Potency |
| --- | --- |
| CCOc1cccc(/C=C/c2ccc3cccc(O)c3n2)c1O | inconclusive: 3.55 µM [quencher, side channel, single point] |
| Cc1ccc(CNc2nc3ccccc3n3nnnc23)cc1 | inconclusive: 17.8 µM [inhibitor, partial curve] |
| C/C(=N\NC(=S)NC1CCCCC1)c1ccccc1 | inactive |
| O=C1C=C(N2CCOCC2)c2ccccc2C1=O | inconclusive: 7.94 µM [quencher, side channel, partial curve] |
| CCCN(CCC)S(=O)(=O)c1ccc(C(=O)NCc2n[nH]c(=S)n2-c2ccc(Cl)c(Cl)c2)cc1 | inconclusive: 17.8 µM [quencher, side channel, partial curve] |
| CC(=O)Nc1ccc(NC(=O)c2ccccc2Nc2ccccc2)cc1 | inconclusive: 15.8 µM [quencher, side channel, partial curve] |
| CCOC(=O)Nc1c(C(=O)OC)[nH]c2cc(OC)ccc12 | inconclusive: 20 µM [quencher, side channel, partial curve] |
| CCc1ccc2c(O)c3c(cc2c1C(=O)OC)C(=O)c1c(O)ccc(O)c1C3=O | inconclusive: 22.4 µM [fluorescent, side channel, partial curve] |
| CN=c1scc(C)n1/N=C/c1ccc(O)cc1O | inconclusive: 28.2 µM [quencher, side channel, single point] |
| CCCc1ccc(C#N)c(SC2CC(=O)N(c3ccc(OC)cc3)C2=O)n1 (stereo not drawn) | inconclusive: 31.6 µM [quencher, side channel, single point] |
| Cc1onc(-c2ccccc2)c1C(=O)Nc1ccc(S(=O)(=O)N2CCCC2)cc1 | inactive |
| N#CC(C(=O)NC1CC1)c1nc2ccccc2nc1N1CCN(C/C=C/c2ccccc2)CC1 (stereo not drawn) | inactive |
| COc1ccc(C)cc1S(=O)(=O)Nc1ccc(F)c(Cl)c1 | inactive |
| CC(C)CCNC(=O)c1cnn2c(C(F)(F)F)cc(-c3ccco3)nc12 | inconclusive: 0.708 µM [inhibitor, full curve] |
| COc1ccc(NC(=O)c2cc3c(CO)cnc(C)c3oc2=Nc2cccc(F)c2)c(OC)c1 | inconclusive: 12.6 µM [inhibitor, partial curve] |
| CCN(CC)c1ccc(NC(=O)c2ccccc2F)cc1 | inactive |
| Cc1ccc2c(c1)=C(c1sc(N(C)c3ccc(O)cc3)nc1O)C(=O)N=2 | inconclusive: 12.6 µM [quencher, side channel, partial curve] |
| O=C(Nc1ccc(Cl)c(Cl)c1)N1CC=C(c2ccccc2)CC1 | inconclusive: 12.6 µM [quencher, side channel, partial curve] |
